Consider 45 compounds from paper PMC4336329 (PLoS ONE, 2015).

SMILES strings stand for the structures. The campaign covered roughly 310,000 compounds. About 2,200 (0.71%) showed an effect of 50% or more. The effect is printed as a negative number. Some of the results follow.

Sequence of human ether-à-go-go-related gene (hERG) potassium channel (Q12809 whole entry, looked up): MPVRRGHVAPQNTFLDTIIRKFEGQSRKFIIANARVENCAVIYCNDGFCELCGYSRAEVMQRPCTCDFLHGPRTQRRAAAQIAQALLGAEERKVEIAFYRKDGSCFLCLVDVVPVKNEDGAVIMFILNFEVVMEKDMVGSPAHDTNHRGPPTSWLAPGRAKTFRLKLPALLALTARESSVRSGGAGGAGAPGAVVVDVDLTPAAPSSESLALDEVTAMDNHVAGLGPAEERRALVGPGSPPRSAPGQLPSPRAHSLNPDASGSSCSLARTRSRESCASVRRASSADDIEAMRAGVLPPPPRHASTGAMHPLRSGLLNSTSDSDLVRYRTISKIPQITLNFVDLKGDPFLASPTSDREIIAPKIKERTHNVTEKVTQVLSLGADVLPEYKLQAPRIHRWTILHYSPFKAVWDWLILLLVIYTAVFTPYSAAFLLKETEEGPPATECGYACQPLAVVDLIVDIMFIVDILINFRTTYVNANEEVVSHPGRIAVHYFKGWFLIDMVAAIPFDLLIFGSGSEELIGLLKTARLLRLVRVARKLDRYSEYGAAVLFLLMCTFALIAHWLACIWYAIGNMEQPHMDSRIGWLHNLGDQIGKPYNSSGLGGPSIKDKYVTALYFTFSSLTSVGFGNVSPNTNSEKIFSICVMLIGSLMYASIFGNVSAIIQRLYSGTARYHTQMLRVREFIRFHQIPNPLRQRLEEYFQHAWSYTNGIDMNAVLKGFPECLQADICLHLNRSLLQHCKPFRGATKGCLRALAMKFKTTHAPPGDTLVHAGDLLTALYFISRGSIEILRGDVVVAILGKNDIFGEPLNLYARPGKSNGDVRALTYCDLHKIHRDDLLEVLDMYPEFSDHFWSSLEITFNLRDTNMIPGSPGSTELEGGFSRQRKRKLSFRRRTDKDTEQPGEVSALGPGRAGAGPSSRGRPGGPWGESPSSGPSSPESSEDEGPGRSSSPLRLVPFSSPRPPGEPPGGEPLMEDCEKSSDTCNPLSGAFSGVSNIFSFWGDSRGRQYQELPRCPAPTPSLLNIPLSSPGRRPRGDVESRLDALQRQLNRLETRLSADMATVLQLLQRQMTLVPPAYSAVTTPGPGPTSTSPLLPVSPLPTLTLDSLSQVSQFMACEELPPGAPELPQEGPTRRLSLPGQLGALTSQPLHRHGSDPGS

The experiment has as its target human ether-à-go-go-related gene (hERG) potassium channel (human, UniProt Q12809). The experiment can be described thus: primary screen, population patch clamp on CHO cells stably expressing hERG.
Take `Cc1[nH]c2ccccc2c1C(=O)COC(=O)c1ccc2c(=O)n3c(nc2c1)CCC3`: the “hERG current change (%, negative = inhibition) at 1uM” value is given as 20.9%.
Under `O=C(c1ccc(F)cc1)[C@@H]1[C@@H](C(=O)c2ccccc2)[C@@]2(C(=O)Nc3ccccc32)[C@H]2c3ccccc3C=CN12` stands 16.5%; under `Cc1ccc(N=Cc2c(O)n(-c3ccc4c(c3)OCO4)c(=O)c3ccccc23)cc1`, 7.06%; under `COc1ccc(CCNC(=O)CC(Cc2ccc(C)cc2)C(=O)O)cc1OC` (stereo not drawn), 13.4%.
Regarding `CN(C)S(=O)(=O)Nc1cccc(NC(=O)CC23CC4CC(CC(C4)C2)C3)c1`, the “hERG current change (%, negative = inhibition) at 1uM” value is given as 7.88%.
Next, `COC(=O)c1cc(NC(=O)c2c(-c3c(Cl)cccc3Cl)noc2C)ccc1N1CCOCC1`: 10.8%; `CC(CCc1ccccc1)NC(=O)C(=O)NCc1ccccc1` (stereo not drawn): 15.7%; `Cc1ccc2cc(C)c3nnc(SCC(=O)N4CCN(C(=O)c5ccco5)CC4)n3c2c1`: 3.46%.
Under `Cc1cccc(C(=O)Nc2cccc3c2CCCC3)c1` stands 22.2%.
As to `Cc1nc(SC(C(N)=O)c2ccccc2)c(C#N)c(C)c1C` (stereo not drawn), the “hERG current change (%, negative = inhibition) at 1uM” value turned out to be 14%.
Take `CC(C)(CN)CC(=O)O.Cl`: the “hERG current change (%, negative = inhibition) at 1uM” value came out at 3.54%.
On to `Cc1ccc(S(=O)(=O)N2CCN(C(=O)COc3ccc(Br)cc3)CC2)cc1`, for which the “hERG current change (%, negative = inhibition) at 1uM” value was -2.11%.
Next, `COc1ccc(CCNc2ncnc3c2oc2ccccc23)cc1OC.Cl`: 7.16%.
`COCCN=C1NC(=O)C(CC(=O)Nc2cccc(Cl)c2C)S1` (stereo not drawn): the “hERG current change (%, negative = inhibition) at 1uM” value turned out to be 4.63%.
For the compound `Cc1cc(=O)oc2cc(OCC3CC(c4ccc(Cl)cc4)=NO3)ccc12` (stereo not drawn), the “hERG current change (%, negative = inhibition) at 1uM” value is 1.47%.
Next, `Cn1nc(C(=O)NCCCN2CCCCC2)c2c1-c1ccccc1S(=O)(=O)C2`: 11.5%; `O=Cc1ccc(OCc2ccc3c(c2)OCO3)cc1`: 13%; `O=[N+]([O-])c1ccc(NCc2ccccc2)c2nonc12`: 19.7%.
Next, `Cc1csc2nc(SCC(=O)N3CCN(c4ccccc4)CC3)[nH]c(=O)c12`: -5.39%.
In the case of `CCCOC(=O)c1ccc(Oc2c(-c3ccc(OCC)cc3O)n[nH]c2C)cc1`, the “hERG current change (%, negative = inhibition) at 1uM” value was 14.4%.
As for `COc1ccccc1CCNC(=O)Cn1c(=O)oc2ccccc21`, the “hERG current change (%, negative = inhibition) at 1uM” value was found to be 16.8%.
On to `O=C(NCCc1ccccc1)c1cccc(Br)c1`, for which the “hERG current change (%, negative = inhibition) at 1uM” value was 11.7%.
As for `CCC(CC)c1nnc(NC(=O)CS(=O)(=O)c2ccccc2)s1`, the “hERG current change (%, negative = inhibition) at 1uM” value was 17.4%.
On to `O=C(NC1CCc2ccccc21)C12CN(Cc3ccccc3)CC1C(c1cccc([N+](=O)[O-])c1)=NO2` (stereo not drawn), for which the “hERG current change (%, negative = inhibition) at 1uM” value was 15.5%.
For `O=C(Nc1ccnn1C1CCN(Cc2cc(Cl)ccc2O)CC1)C1CC1`, the “hERG current change (%, negative = inhibition) at 1uM” value is -30.6%.
Turning to `COc1ccccc1NC(=O)c1c(C)nc2ccccc2c1C(=O)O`, the “hERG current change (%, negative = inhibition) at 1uM” value amounted to 9.61%.
Consider `COc1cccc(CC(=O)N2CCCC(CCC(=O)N3CCN(c4ccccn4)CC3)C2)c1` (stereo not drawn), for which the “hERG current change (%, negative = inhibition) at 1uM” value was -0.0329%.
Take `CCOC(=O)C1CCCN(C(=O)Cc2ccc(Cl)cc2)C1` (stereo not drawn): the “hERG current change (%, negative = inhibition) at 1uM” value amounted to 13.8%.
Regarding `O=C(NCC(=O)N1CCOCC1)OCc1ccccc1`, the “hERG current change (%, negative = inhibition) at 1uM” value was -48.7%.
Under `COc1ccc(CNC(=O)C[C@H]2C(=O)N(Cc3ccc(OC)cc3)C[C@@H]2Cc2ccccc2)cc1` stands -13.5%; under `COC(=O)c1c(NC(=O)CSc2nnc(-c3cccnc3)n2Cc2ccco2)sc(C)c1C`, 10.4%.
As for `Cc1cc(=O)c2c(O)c(O)ccc2o1`, the “hERG current change (%, negative = inhibition) at 1uM” value stood at 15.6%.
As for `O=C(CC1C(=O)NCCN1CC1CCCCC1)NCCc1ccc(F)cc1` (stereo not drawn), the “hERG current change (%, negative = inhibition) at 1uM” value is reported as -8.83%.
For `c1ccc(-c2n[nH]c(-c3ccccn3)n2)cc1`, the “hERG current change (%, negative = inhibition) at 1uM” value amounted to 8.17%.
For the compound `Cc1ccc(NC(=O)CCc2nnc3ccc(NCc4ccco4)nn23)cc1`, the “hERG current change (%, negative = inhibition) at 1uM” value turned out to be 9.62%.
Regarding `Cc1[nH]nc(N2CCCCC2)c1[N+](=O)[O-]`, the “hERG current change (%, negative = inhibition) at 1uM” value is given as 6.81%.
For the compound `CCOC(=O)C1CN(S(=O)(=O)c2ccc(OC)cc2)c2cc(S(=O)(=O)CC)ccc2O1` (stereo not drawn), the “hERG current change (%, negative = inhibition) at 1uM” value is -0.375%.
Under `NS(=O)(=O)c1ccc(CNC(=O)c2ccccn2)cc1` stands 15.5%; under `COc1ccc(CN(C)C(=O)CCN2C(=O)c3ccccc3C2=O)c(OC)c1OC`, 9.78%.
In the case of `Cc1ccc(OCc2nc(C#N)c(N3CCN(Cc4ccccc4)CC3)o2)cc1`, the “hERG current change (%, negative = inhibition) at 1uM” value was determined as 3.29%.
As for `O=C(COc1ccc(F)cc1)NN1C(=O)CSC1=S`, the “hERG current change (%, negative = inhibition) at 1uM” value stood at 5.55%.
For `Cc1ccc(/C=N\NC(=O)c2ccc(Cn3cc(Br)c([N+](=O)[O-])n3)o2)o1`, the “hERG current change (%, negative = inhibition) at 1uM” value is given as 7.06%.
With `CCOC(=O)/C=C/[C@H]1Cc2ccccc2CO1`, the “hERG current change (%, negative = inhibition) at 1uM” value stood at 8.33%.
As for `CCCCSCc1nc2ccccn2c1Br`, the “hERG current change (%, negative = inhibition) at 1uM” value turned out to be 13.3%.
Turning to `CCCCc1cc(=O)oc2cc(C)cc(OC(C)C(=O)NCc3ccncc3)c12` (stereo not drawn), the “hERG current change (%, negative = inhibition) at 1uM” value is given as -7.56%.
